A lower IC50 marks a more sensitive line; a limit (>, <) means that the fit lies beyond the doses tested. For AUC the same curve is integrated over the 256-fold range of doses and scaled to a fraction; values near 1 show little effect. An entry number marks a drug with two screens in the source, which often give different values.
These cell lines were tested with CS(=O)(=O)N1CCN(Cc2cc3nc(-c4cccc5[nH]ncc45)nc(N4CCOCC4)c3s2)CC1 [GDC0941] (assay: Viability of human cancer cell lines after 72 h of drug (GDSC screen)). Conditions: screen: GDSC drug entry 1058.
Method: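 Human cancer cell lines in 384-well plates, medium with 10% serum, drug for 72 h over a 256-fold dose range (nine 2-fold or five 4-fold steps up to the top dose). Adherent lines were fixed and stained with the nucleic acid dye Syto60, suspension lines read with resazurin; signal relative to control wells, capped at 0 and 100%. One two-parameter sigmoid per drug and line, fitted in a mixed model over all curves with the slope shared within a line.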

Q: Which results are given for “RXF393 (kidney, adherent, top dose 4 µM)”?
A: AUC: 0.781; IC50: 2380 nM

Q: “Raji (Burkitt lymphoma, suspension, top dose 4 µM)” was tested. Which AUC did it give?
A: Its AUC is 0.974.

Q: What about the IC50 of the same cell line?
A: The IC50 was > 4000 nM.

Q: “Ramos-2G6-4C10 (Burkitt lymphoma, suspension, top dose 4 µM)” was tested. Which AUC did it give?
A: The AUC was 0.568.

Q: And the IC50?
A: The IC50 was 372 nM.

Q: What does the source list for “SAS (head and neck, adherent, top dose 4 µM)”?
A: AUC: 0.91; IC50: > 4000 nM

Q: With “SAT (head and neck, adherent, top dose 4 µM)” as the cell line, how does the AUC read?
A: The AUC was 0.584.

Q: What about the IC50 of the same cell line?
A: The IC50 was 480 nM.

Q: How did the AUC turn out when “SBC-1 (small cell lung carcinoma, suspension, top dose 4 µM)” was run?
A: The AUC was 0.901.

Q: And the IC50?
A: Its IC50 is > 4000 nM.

Q: For “SBC-3 (small cell lung carcinoma, adherent, top dose 4 µM)”, which AUC is on record?
A: The AUC was 0.881.

Q: And the IC50?
A: Its IC50 is 3520 nM.

Q: What does the source list for “SBC-5 (small cell lung carcinoma, adherent, top dose 4 µM)”?
A: AUC: 0.924; IC50: > 4000 nM

Q: With “SCC90 (head and neck, adherent, top dose 4 µM)” as the cell line, how does the AUC read?
A: Its AUC is 0.885.

Q: What about the IC50 of the same cell line?
A: Its IC50 is > 4000 nM.

Q: Which results are given for “SCC-9 (head and neck, adherent, top dose 4 µM)”?
A: AUC: 0.946; IC50: > 4000 nM

Q: “SCC-15 (head and neck, adherent, top dose 4 µM)” was tested. Which AUC did it give?
A: The AUC was 0.962.

Q: And the IC50?
A: Its IC50 is > 4000 nM.

Q: “SCC-25 (head and neck, adherent, top dose 4 µM)” was tested. Which AUC did it give?
A: The AUC was 0.697.

Q: What about the IC50 of the same cell line?
A: Its IC50 is 970 nM.

Q: SCH (stomach, adherent, top dose 4 µM) was tested. Which AUC did it give?
A: Its AUC is 0.906.

Q: What about the IC50 of the same cell line?
A: Its IC50 is > 4000 nM.

Q: What does the source list for SF126 (glioma, adherent, top dose 4 µM)?
A: AUC: 0.793; IC50: 1940 nM

Q: Which AUC does the source give for SF268 (glioma, adherent, top dose 4 µM) here?
A: Its AUC is 0.893.

Q: What about the IC50 of the same cell line?
A: Its IC50 is > 4000 nM.

Q: For SF295 (glioma, adherent, top dose 4 µM), which AUC is on record?
A: The AUC was 0.805.

Q: What about the IC50 of the same cell line?
A: Its IC50 is 2220 nM.

Q: Which AUC does the source give for SF539 (glioma, adherent, top dose 4 µM) here?
A: Its AUC is 0.912.

Q: What about the IC50 of the same cell line?
A: Its IC50 is > 4000 nM.

Q: What does the source list for “SH-4 (melanoma, adherent, top dose 4 µM)”?
A: AUC: 0.901; IC50: > 4000 nM

Q: What does the source list for “SHP-77 (small cell lung carcinoma, semi-adherent, top dose 4 µM)”?
A: AUC: 0.992; IC50: > 4000 nM

Q: What does the source list for “SIMA (neuroblastoma, adherent, top dose 4 µM)”?
A: AUC: 0.882; IC50: > 4000 nM

Q: With SISO (cervix, adherent, top dose 4 µM) as the cell line, how does the AUC read?
A: The AUC was 0.805.

Q: And the IC50?
A: The IC50 was 1920 nM.

Q: Which AUC does the source give for “SJRH30 (rhabdomyosarcoma, adherent, top dose 4 µM)” here?
A: Its AUC is 0.886.

Q: And the IC50?
A: Its IC50 is > 4000 nM.

Q: With SJSA-1 (bone, adherent, top dose 4 µM) as the cell line, how does the AUC read?
A: Its AUC is 0.798.

Q: And the IC50?
A: Its IC50 is 2190 nM.

Q: How did the AUC turn out when “SK-CO-1 (large intestine, adherent, top dose 4 µM)” was run?
A: The AUC was 0.782.

Q: And the IC50?
A: Its IC50 is 1570 nM.

Q: With “SK-ES-1 (Ewing sarcoma, semi-adherent, top dose 4 µM)” as the cell line, how does the AUC read?
A: The AUC was 0.511.

Q: What about the IC50 of the same cell line?
A: Its IC50 is 268 nM.

Q: For “SK-GT-2 (stomach, adherent, top dose 4 µM)”, which AUC is on record?
A: The AUC was 0.773.

Q: What about the IC50 of the same cell line?
A: Its IC50 is 1630 nM.

Q: “SK-GT-4 (oesophagus, adherent, top dose 4 µM)” was tested. Which AUC did it give?
A: The AUC was 0.644.

Q: And the IC50?
A: The IC50 was 693 nM.

Q: How did the AUC turn out when “SK-HEP-1 (liver, adherent, top dose 4 µM)” was run?
A: The AUC was 0.988.

Q: And the IC50?
A: The IC50 was > 4000 nM.

Q: “SK-LMS-1 (soft tissue, adherent, top dose 4 µM)” was tested. Which AUC did it give?
A: Its AUC is 0.648.

Q: And the IC50?
A: Its IC50 is 627 nM.

Q: “SK-LU-1 (lung adenocarcinoma, adherent, top dose 4 µM)” was tested. Which AUC did it give?
A: Its AUC is 0.803.

Q: What about the IC50 of the same cell line?
A: Its IC50 is 2650 nM.

Q: How did the AUC turn out when “SK-MEL-1 (melanoma, suspension, top dose 4 µM)” was run?
A: Its AUC is 0.993.

Q: What about the IC50 of the same cell line?
A: The IC50 was > 4000 nM.

Q: Which AUC does the source give for “SK-MEL-2 (melanoma, adherent, top dose 4 µM)” here?
A: The AUC was 0.866.

Q: And the IC50?
A: The IC50 was 3790 nM.

Q: What does the source list for “SK-MEL-3 (melanoma, adherent, top dose 4 µM)”?
A: AUC: 0.911; IC50: > 4000 nM

Q: For “SK-MEL-5 (melanoma, adherent, top dose 4 µM)”, which AUC is on record?
A: Its AUC is 0.781.

Q: And the IC50?
A: Its IC50 is 2050 nM.

Q: For “SK-MEL-28 (melanoma, adherent, top dose 2 µM)”, which AUC is on record?
A: The AUC was 0.821.

Q: And the IC50?
A: Its IC50 is 1130 nM.

Q: “SK-MEL-31 (melanoma, adherent, top dose 4 µM)” was tested. Which AUC did it give?
A: The AUC was 0.915.

Q: And the IC50?
A: Its IC50 is > 4000 nM.

Q: “SK-MG-1 (glioma, adherent, top dose 4 µM)” was tested. Which AUC did it give?
A: The AUC was 0.534.

Q: What about the IC50 of the same cell line?
A: Its IC50 is 311 nM.

Q: Which AUC does the source give for “SK-MM-2 (myeloma, suspension, top dose 4 µM)” here?
A: The AUC was 0.805.

Q: What about the IC50 of the same cell line?
A: Its IC50 is 2120 nM.

Q: “SK-N-AS (neuroblastoma, adherent, top dose 4 µM)” was tested. Which AUC did it give?
A: The AUC was 0.919.

Q: And the IC50?
A: The IC50 was > 4000 nM.

Q: How did the AUC turn out when “SK-N-FI (neuroblastoma, adherent, top dose 4 µM)” was run?
A: Its AUC is 0.823.

Q: And the IC50?
A: Its IC50 is 2330 nM.

Q: What does the source list for “SK-N-SH (neuroblastoma, adherent, top dose 4 µM)”?
A: AUC: 0.834; IC50: 2560 nM

Q: “SK-PN-DW (Ewing sarcoma, adherent, top dose 4 µM)” was tested. Which AUC did it give?
A: Its AUC is 0.77.

Q: What about the IC50 of the same cell line?
A: The IC50 was 1570 nM.

Source: the supplement of paper PMC4967469
